# Data from PubChem BioAssay AID493208 (National Center for Advancing Translational Sciences (NCATS), 2011).
# The campaign covered roughly 44,000 compounds. About 340 (0.77%) were called active. Roughly 5% stayed inconclusive and do not appear here. The call rests on the fitted dose curve; in most records, active means well fitted inhibition curve with a large enough effect; inconclusive means small, poorly fitted or top-dose-only effect; inactive means flat fitted curve, though single readings scatter. This is one part of the list.
# Assay: Acumen qHTS Assay for Inhibitors of the mTORC1 Signaling Pathway in MEF (Tsc2-/-, p53-/-) Cells: Sytravon;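 further: plate controls were DMSO for no effect and rapamycin for full effect; nearly all actives have a fitted effect of over 50% in size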
# Details: phospho-rpS6 immunofluorescence/PI, 24 h; series mostly up to 38.3 µM; activity change, negative = inhibition: at the top concentration
# In short: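 Plate MEFs (Tsc2-/-, p53-/-, empty vector) in DMEM/10% FBS; after 24 h add compound, incubate 24 h at 37 degree Celsius; fix in PFA/TX-100, block, stain phospho-rpS6 and 10 uM PI; scan at 488 nm; report % positive cells.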
row,Compound,"activity change, negative = inhibition"
1,COc1cccc(-n2c(=O)c3sccc3n(Cc3cc(=O)n4cc(Cl)ccc4n3)c2=O)c1,inactive: 7.57%
2,Cc1ccc(-c2nc(CCNC(=O)C(=O)Nc3ccc(F)cc3F)cs2)cc1,inactive: 3.92%
3,Cc1ccc2c(c1)N(CC(=O)NCCCN1CCCCC1)C(=O)c1cccnc1O2,inactive: 2.28%
4,COc1ccccc1NCc1nnc2n1CCCCC2,inactive: 1.39%
5,COc1ccccc1CNC(=O)CCCN1C(=O)CCn2nc(-c3cn(C)c4ccccc34)cc21,inactive: -2.24%
6,CC(C)C(=O)Nc1c(C(=O)N2CCN(c3ccccc3F)CC2)oc2ccccc12,inactive: 1.34%
7,Fc1ccc(C(c2nnc(-c3ccccc3)o2)N2CCN(c3ccccc3)CC2)c(Cl)c1 (configuration not stated),inactive: -13.6%
8,Cc1ccc(-c2nc3sc(CCNC(=O)c4ccco4)c(C)n3n2)cc1,inactive: -3.13%
9,COc1cc(Cl)c(C)cc1NC(=O)c1nn(-c2ccc(C)cc2)c(=O)n(C)c1=O,inactive: -2.48%
10,Cc1ccc(CSc2nc3ccncc3n2Cc2nc(-c3ccc(Cl)cc3)oc2C)cc1,inactive: -7.15%
11,CCOc1ccc(N2CC(NC(=O)c3cc4ccccc4o3)CC2=O)cc1 (configuration not stated),inactive: -6.31%
12,COc1cccc(NC(=O)CSc2c(C)cnc3c2c(=O)n(C)c(=O)n3C)c1,inactive: -8.76%
13,CCCOC(=O)c1c(NC(=O)c2cc3nc(-c4ccc(OC)cc4)cc(C(F)(F)F)n3n2)sc2c1CCCC2,inactive: 17.1%
14,CCOC(=O)c1ccc(NC(=O)C(=O)NCCc2ccc(OC)cc2)cc1,inactive: 2.32%
15,Cc1ccc(C)c(NC(=O)Cn2c(-c3nonc3N)nc3ccccc32)c1,inactive: -18.3%
16,COc1ccc2oc(=O)c(C(=O)N3CCN(c4cc(Cl)ccc4Cl)CC3)cc2c1,inactive: -3.44%
17,CCCC(=O)Nc1cccc(-c2nc3ncccc3o2)c1,inactive: 4.43%
18,COc1ccccc1N1CCN(C(=O)c2cnn(C(C)(C)C)c2C2CCN(C(=O)OC(C)(C)C)CC2)CC1,inactive: -4.5%
19,CCOC(=O)C1CCN(c2nc3c(S(=O)(=O)c4ccc(CC)cc4)nnn3c3ccc(Cl)cc23)CC1,inactive: -3.35%
20,Cc1cccn2c(=O)c3cc(C(=O)NC(C)(C)C)n(C)c3nc12,inactive: -2.59%
21,CC(=O)c1ccc(NC(=O)C2CCCN(S(=O)(=O)c3ccc(Br)s3)C2)cc1 (configuration not stated),inactive: -0.567%
22,CCOc1ccc(NC(=O)c2sc3nc4n(c(=O)c3c2C)CCCC4)cc1,inactive: 0.746%
23,Cc1cc(Cl)ccc1NC(=O)CS(=O)(=O)c1cccc2nsnc12,inactive: -3.85%
24,CCOC(=O)c1ccc(NC(=O)C2CCN(S(=O)(=O)Cc3ccccc3)CC2)cc1,inactive: -9.13%
25,CCOc1ccc(N(CC)C(=O)c2cc3c(s2)-c2ccc(Cl)cc2SC3)cc1,inactive: -7.61%

row,Compound,"activity change, negative = inhibition"
1,Cc1ccn2c(Nc3ccc4c(c3)OCO4)c(-c3ccc(C)o3)nc2c1,inactive: -4.58%
2,Cc1ccc(C(=O)NCCSc2c[nH]c3ccccc23)cc1C,inactive: -4.71%
3,Cc1cc(C)cc(NC(=O)CSc2oc(-c3cccs3)nc2S(=O)(=O)c2ccc(Br)cc2)c1,inactive: 1.25%
4,CCc1ccc(NCc2cc3ccc(OC)cc3n(CC(=O)Nc3ccccc3OC)c2=O)cc1,inactive: -1.69%
5,COC(=O)c1sc2cccc(F)c2c1S(=O)(=O)NC(C)c1ccccc1 (configuration not stated),inactive: -14.2%
6,COc1ccc(NC(=O)C2(S(=O)(=O)c3ccc(C)cc3)CC2)c(OC)c1,inactive: -19.6%
7,CCOC(=O)C1CCN(C(=O)c2ccc3c(=O)n4nc(Nc5ccccc5)sc4nc3c2)CC1,inactive: -4.57%
8,COc1ccc(-c2c(C)c3ccc(O)c(CN4CCCCC4C)c3oc2=O)cc1OC (configuration not stated),inactive: -20%
9,CCCN(CCC)C(=O)Cn1c(=O)n(-c2ccc(CC)cc2)c(=O)c2c3c(sc21)CCC3,inactive: -1.09%
10,CCOc1ccc(NC(c2ccc(Cl)cc2)c2nnc(-c3cccc(F)c3)o2)cc1 (configuration not stated),inactive: 1.18%
11,Cc1ccc(CN(C(=O)COc2cccc(Cl)c2)c2ccccn2)o1,inactive: -1.54%
12,O=C(Nc1ccccc1F)C(c1ccccc1)N1Cc2ccccc2C1=O (configuration not stated),inactive: 0.475%
13,CCCOC(=O)c1ccc(NC(=O)C2CC(=O)N(c3ccc(C)cc3)C2)cc1 (configuration not stated),inactive: -12.9%
14,O=C(CSc1nccn1Cc1ccc(F)cc1)NC1CCCC1,inactive: 1.13%
15,CCCOc1ccccc1C(=O)N1CCCCC1CCN1CCCCC1 (configuration not stated),inactive: -0.525%
16,CCC(=O)N1c2ccccc2CC1C(=O)NCCc1ccccc1OC (configuration not stated),inactive: 0.924%
17,CCc1ccc(-n2nc(C)c3c(C(=O)Nc4ccc(Cl)cc4)cc(C)nc32)cc1,inactive: -0.115%
18,Cc1ccc(C)c(-c2ccc(=O)n(C(C)C(=O)Nc3ccccc3C(F)(F)F)n2)c1 (configuration not stated),inactive: 2.98%
19,CCCCNC(=O)CSc1nc(-c2ccc(OC)cc2)cc(C(F)(F)F)n1,inactive: 1.1%
20,O=C(NC1CC(=O)N(c2cccc(F)c2)C1)c1ccc(S(=O)(=O)N2CCCCC2)cc1 (configuration not stated),inactive: 0.0025%
21,COc1ccc(OC)c(-n2nnc(-c3nc(-c4ccc5c(c4)OCO5)no3)c2C)c1,inactive: -8.34%
22,COC(=O)c1ccccc1NC(=O)CCn1c(=O)c2cccn2c2cccnc21,inactive: 4.67%
23,Cc1noc(-c2ccc(N(C)Cc3ccccc3)c([N+](=O)[O-])c2)n1,inactive: 5.62%
24,COc1ccc(C(=O)Nc2cc(-c3nc4ncccc4o3)ccc2C)cc1Br,inactive: 8.97%
25,COc1ccc(OCc2nc(-c3ccc(OC)c(OC)c3)no2)cc1,inactive: -0.941%

row,Compound,"activity change, negative = inhibition"
1,CC(=O)Nc1ccc(C)cc1-c1nc2ccccc2n(Cc2cccc(Br)c2)c1=O,inactive: 2.42%
2,CC(=O)Nc1c(C)nn(-c2ccccc2)c1N1CCC(C(=O)Nc2ccc(C)cc2Cl)CC1,inactive: 1.84%
3,CCOC(=O)C1CCCN(C(=O)c2ccc(C)c(NC(=O)c3nsc4ccccc34)c2)C1 (configuration not stated),inactive: -2.75%
4,COc1cccc(NC(=O)CSc2nnc3[nH]c(=O)cc(-c4ccccc4)n23)c1,inactive: 0.464%
5,CCCc1nc2nc(C)c(NS(=O)(=O)c3ccc(C)c(C)c3)c(=O)n2[nH]1,inactive: -3.5%
6,COc1ccc(CCNc2oc(/C=C/c3ccc(OC)c(OC)c3)nc2C#N)cc1,inactive: -19.2%
7,CCCCOc1ccc(C(=O)NCCS(=O)(=O)N2CCN(c3ccccc3OC)CC2)cc1,inactive: 5.28%
8,Cc1ccc2oc(-c3cc(NC(=O)Cc4ccccc4)ccc3Cl)nc2c1,inactive: -4.53%
9,O=C(NC1CC(=O)N(c2ccc(F)cc2)C1)c1ccc(S(=O)(=O)N2CCCC2)cc1 (configuration not stated),inactive: -4.09%
10,CCN(C(=O)CSc1nc2ccccc2nc1Cc1cccc(OC)c1)c1cccc(C)c1,inactive: -31.3%
11,O=C(COc1ccc(Cl)cc1)Nc1ccc(O)c(-c2nc3ccccc3s2)c1,inactive: -1.61%
12,Cc1ccc(Cn2c(C(=O)O)c(CNCCc3cccs3)c3ccc(C)cc32)cc1,inactive: 0.203%
13,Cc1ccc(NC(=O)Nc2nc3c(s2)CCCCCC3)cc1C,inactive: -17.1%
14,COc1ccccc1NC(=O)c1ccc2[nH]c(C)cc(=O)c2c1,inactive: -0.531%
15,Cc1cc(Br)ccc1NC(=O)COc1cc(=O)n(C)c2ccccc12,inactive: -0.386%
16,O=c1c2sc3ccccc3c2n(Cc2ccccc2F)c(=O)n1-c1ccccc1Cl,inactive: -10.7%
17,Cc1ccccc1NC(=O)c1c(C)oc2ccc(O)c(CN3CCCC(C)C3)c12 (configuration not stated),inactive: -17.8%
18,COc1cccc(CNC(=O)CSc2nc3ccccc3nc2Cc2ccccc2)c1,inactive: 2.35%
19,COc1cc2c(cc1OC)C(c1ccc(F)cc1)N(c1ccccc1)C(=O)C2 (configuration not stated),inactive: -0.827%
20,Cc1nnc(N2CCC(C(=O)NCc3ccc(F)cc3)CC2)c2nn(-c3ccc(Cl)cc3)c(C)c12,inactive: -7.52%
21,Cc1ccc2c(c1)cc(C(=O)NCc1ccc(F)cc1)n2C,inactive: -13.3%
22,COc1ccccc1N1CCN(c2ccc(=O)n(CC(=O)O)n2)CC1,inactive: -4.92%
23,CCOCC(=O)Nc1ccc(-c2cn3c(C)csc3n2)cc1,inactive: 0%
24,COc1cccc(CNc2ncnc3c2nnn3C)c1,inactive: -3.24%
25,CNC(=O)C1CCC(Cn2c(=O)c3sccc3n(CC(=O)N3CCCC3)c2=O)CC1 (configuration not stated),inactive: 4.82%

row,Compound,"activity change, negative = inhibition"
1,CCN(C(=O)CSc1nc(-c2ccccc2)no1)c1cccc(C)c1,inactive: 6.08%
2,Cc1cccc2cc(CN(C(=O)c3cccc(Cl)c3)c3ccccc3)c(=O)[nH]c12,inactive: -6.16%
3,CCOc1ccc(C2C(C(N)=O)=C(C)Nc3nc(-c4ccc(OC)cc4)nn32)cc1 (configuration not stated),inactive: 1.1%
4,COc1ccccc1C(=O)Nc1cccc(OCc2cc(=O)n3c4c(sc3n2)CCCC4)c1,inactive: 0.154%
5,COc1ccccc1Nc1nn2c(=O)c3ccc(C(=O)NC4CCC(C)CC4)cc3nc2s1 (configuration not stated),inactive: -0.345%
6,Cc1cc2ccccc2n1CCNC(=O)c1ccccc1F,inactive: -0.262%
7,O=c1c2sc3ccccc3c2n(Cc2ccc(F)cc2)c(=O)n1Cc1ccco1,inactive: 0.0756%
8,O=C(NCC(c1ccc2c(c1)OCO2)N1CCN(c2ccccc2)CC1)C(=O)Nc1ccccc1 (configuration not stated),inactive: 2.63%
9,CC(C)c1ccc(S(=O)(=O)c2nnn3c2nc(NCc2cccs2)c2sccc23)cc1,inactive: -5.34%
10,COc1ccc(C(=O)Nc2ccccc2)cc1S(=O)(=O)Nc1ccc(Br)cc1,inactive: -0.0762%
11,O=C(OCc1cc(=O)n2nc(C3CC3)sc2n1)c1ccc(NC(=O)c2ccccc2Cl)cc1,inactive: 5.17%
12,Cc1c(C(=O)Nc2ccccc2)sc2nc(-c3cc4ccccc4oc3=O)[nH]c(=O)c12,inactive: -1.22%
13,CCc1ccc2oc(C(=O)Nc3cc(Cl)ccc3OC)cc(=O)c2c1,inactive: -3.9%
14,Cc1ccc(NC(=O)CCn2nc(-c3ccccc3)c3ccccc3c2=O)c(C)c1,inactive: 11.6%
15,O=C(Nc1ccc2nc(SCC(=O)N3CCCc4ccccc43)sc2c1)c1ccccc1F,inactive: -14.8%
16,CCc1ccc(C2=C(C)C(N3CCC(C(=O)Nc4ccc(F)cc4)CC3)=NS2(=O)=O)cc1,inactive: -25.6%
17,O=C(Nc1cccc(C(=O)N2CCN(c3ccccc3)CC2)c1)c1nsc2ccccc12,inactive: 2.38%
18,CCCCNC(=O)CCCn1c(=O)c2ccccc2n(Cc2ccc(Cl)cc2)c1=O,inactive: 3.95%
19,COc1ccc(C2CC(=O)c3cnc4c(-c5ccccc5)c(C)nn4c3C2)c(OC)c1 (configuration not stated),inactive: 3.99%
20,COc1ccc2c(c1)c1c(c(=O)n(-c3ccc(OC)c(OC)c3)c(=O)n1Cc1ccc(C)cc1)n2C,inactive: 0.443%
21,Cc1cc2c(cc1C)-n1c(-c3ccccc3)c3c(=O)n(C)c(=O)n(C)c3c1C(c1ccco1)N2 (configuration not stated),inactive: -19.4%
22,CC(C)(C)OC(=O)N1CCC(c2c(C(=O)N3CCOCC3)cnn2-c2ccccc2Cl)CC1,inactive: -17.4%
